# Data as given in PubChem BioAssay AID1508642 (National Center for Advancing Translational Sciences (NCATS), 2021).
# Screen size: about 43,000 compounds; about 200 (0.47%) were called active. Roughly 12% stayed inconclusive and do not appear here. The call rests on the fitted dose curve; in most records, active means well fitted cell-killing curve with a large enough effect; inconclusive means small, poorly fitted or top-dose-only effect, or effect the other way; inactive means flat fitted curve, though single readings scatter. The list shows a part of the results.
# Assay: Cell viability qHTS assay in S16 Pmp22-F2sN cells; further: nearly all actives have a fitted effect of over 65% in size
# Conditions: S16 Pmp22-F2sN Schwann cells (luciferase reporters placed in the Pmp22 gene) viability, CellTiter-Glo, 24 h; series mostly up to 57.5 µM; activity change, negative = cytotoxicity: at the top concentration
# Summary of the method: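 Rat S16 Schwann reporter line, 24 h treatment with library compounds delivered at 23 nL per well. Cell viability by CellTiter-Glo luminescence.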
# On the % scale 0 is the no-effect control and ±100 the full control effect.
row,Compound,"activity change, negative = cytotoxicity"
1,CC(=O)Nc1ccc(S(=O)(=O)Nc2cc(-c3cn4ccccc4n3)ccc2C)cc1,inactive: -2.69%
2,COc1ccc(/C=C/c2nc(C#N)c(NCCc3ccccc3)o2)cc1OC,inactive: 4.36%
3,Cc1ccc(C)c(Cn2c(=O)cc(C)c3c(C)nn(-c4cccc(F)c4)c32)c1,inactive: -2.7%
4,COc1ccc(NC(=O)c2cnc(Nc3ccc(C)c(Cl)c3)c3ccccc23)cc1OC,inactive: 15.8%
5,COc1cccc(-n2c(=O)c3c(C)c(C)sc3n(CC(=O)NCc3ccccc3)c2=O)c1,inactive: 25.4%
6,COc1ccc(-c2nsc(NC(=O)C(C)Oc3ccc(Cl)c(C)c3)n2)cc1 (configuration not stated),inactive: -15.5%
7,CC(C)CCNC(=O)C1CCN(c2nc3ccc(Cl)cc3[nH]2)CC1,inactive: 1.02%
8,COc1ccc(C)cc1NC(=O)c1ccc(=O)n(Cc2ccccc2)c1,inactive: 0.737%
9,COc1ccc(NC(=O)Cn2c(=O)n(-c3ccc(C)cc3)c(=O)c3c2cnn3C)cc1,inactive: 15.3%
10,O=C(Nc1ccc2nc(SCC(=O)N3CCCC3)sc2c1)c1cccc(Cl)c1,inactive: 0.461%
11,COC(=O)c1cc2occc2n1Cc1nc(-c2cccc(Cl)c2)oc1C,inactive: 4.27%
12,Cc1sc2ncn(CC(=O)N3CCN(c4ccc(Cl)cc4)CC3)c(=O)c2c1S(=O)(=O)N1CCN(c2ncccn2)CC1,inactive: -9.76%
13,CC(C)(C)c1ccc(C(=O)NC2(C(F)(F)F)C(=O)Nc3c2c(=O)[nH]c(=O)n3-c2ccccc2)cc1 (configuration not stated),inactive: 6.47%
14,Cc1cccn2c(=O)c3cc(C(=O)NCc4cccnc4)c(=N)n(CCCO)c3nc12,inactive: -4.71%
15,CN1CCc2nc3sc(C(=O)Nc4ccccc4OC(F)(F)F)c(N)c3cc2C1,inactive: -17.7%
16,CC1=Nc2cc(C(=O)NCCc3ccccc3)ccc2Sc2c(C)ccc(C)c21,inactive: -2.66%
17,Cc1ccc(Cn2c(SCC(=O)C(C)(C)C)nc3ccsc3c2=O)cc1,inactive: 0.08%
18,CN1CCN(c2nc3c(S(=O)(=O)c4ccccc4)nnn3c3ccsc23)CC1,inactive: 0.686%
19,Cc1ccc(-n2c(SCC(=O)Nc3cccc(C)c3)nc3c(oc4ccccc43)c2=O)cc1,inactive: -15.4%
20,CCC(=O)Nc1ccc2nc(SCCOc3ccc(C)cc3)sc2c1,inactive: 2.84%
21,CCS(=O)(=O)c1ncc(N(Cc2ccc(F)cc2)Cc2ccco2)c(C(=O)Nc2cc(C)ccc2C)n1,inactive: -1.11%
22,CCOC(=O)C1CCN(C(=O)CN2c3ccc(CC)cc3-c3ccccc3S2(=O)=O)CC1,inactive: 6.05%
23,CCCn1c(NCc2ccc(N(CC)CC)cc2)nc2ccccc21,inactive: -31.3%
24,CCCN(CCC)C(=O)Cn1c(=O)n(-c2ccc(OC)cc2)c(=O)c2ccc(C(=O)NCc3ccc(C)cc3)cc21,inactive: -0.612%

row,Compound,"activity change, negative = cytotoxicity"
1,COc1cccc(-c2ccc3c(N)c(C(=O)Nc4cc(F)ccc4F)sc3n2)c1,inactive: 20.5%
2,CCOC(=O)C1CCCN(C(=O)c2ccc(-n3ccc4ccccc43)s2)C1 (configuration not stated),inactive: 6.98%
3,CC(=O)c1cccc(NS(=O)(=O)c2ccc3c(c2)NC(=O)CC(=O)N3)c1,inactive: 4.87%
4,CCN(Cc1ccccc1)C(=O)c1cc2c(s1)-c1c(C)cccc1OC2,inactive: 1.67%
5,Cc1ccc(Cl)cc1NC(=O)Cn1c(=O)n(Cc2ccc(C(=O)NCc3ccc4c(c3)OCO4)cc2)c(=O)c2ccccc21,inactive: -1.1%
6,CC(=O)N1c2c(cc(Br)cc2S(=O)(=O)N2CCN(c3cccc(Cl)c3)CC2)CC1C (configuration not stated),inactive: -0.813%
7,COc1cccc(N2CCN(C(=O)c3cnn(-c4ccc(C)cc4C)c3C3CCN(C(=O)OC(C)(C)C)CC3)CC2)c1,inactive: -28.1%
8,CCOc1ccc(-c2csc(/C(C#N)=C/c3ccc(Br)cc3)n2)cc1,inactive: 15%
9,O=c1c2cnn(-c3ccc(Cl)cc3)c2ncn1Cc1cccc(C(F)(F)F)c1,inactive: -1.75%
10,COc1ccc(NC(=O)CSc2cc(-c3ccccc3)nc(C)n2)cc1,inactive: -0.379%
11,O=c1cc(CSc2n[nH]c(-c3ccccc3)n2)[nH]c2ccccc12,inactive: -15.1%
12,COc1ccccc1NC(=O)CSc1oc(-c2cccs2)nc1S(=O)(=O)c1ccccc1,inactive: -2.77%
13,COc1cc(NC(=O)c2cc3c(=O)n(Cc4cccs4)ccc3nc2C)cc(OC)c1OC,inactive: -11.1%
14,CC(Oc1ccccc1Cl)C(=O)N1CCN(CCc2ccccn2)CC1 (configuration not stated),inactive: 0.11%
15,CCc1cccc(NC(=O)Cn2nc(-c3cc(C)ccc3C)ccc2=O)c1,inactive: 1.55%
16,Cc1ccc(CN2C(=O)C3(c4ccccc42)N(c2cccc(C(F)(F)F)c2)C(=O)CS3(=O)=O)cc1 (configuration not stated),inactive: 3.82%
17,COc1ccc(OC)c(NC(=O)CN2C(=O)CCc3cc(S(=O)(=O)N4CCCCC4)ccc32)c1,inactive: -23%
18,O=C(NC1CCCCC1)c1ccc2c(c1)N(Cc1ccc(Cl)cc1)C(=O)c1ccccc1S2(=O)=O,inactive: 12.6%
19,O=C(CN1C(=O)COc2ccc(S(=O)(=O)N3CCOCC3)cc21)N1CCN(c2ccc(F)cc2)CC1,inactive: 9.92%
20,CC(Sc1nc(=O)cc(N)n1CCc1ccccc1)C(=O)Nc1ccccc1C#N (configuration not stated),inactive: 0.873%
21,CN(C)CCn1c2c(c(SCC(=O)Nc3ccc(F)cc3F)nc1=O)CCC2,inactive: 19.1%
22,CCc1ccc2oc(C(=O)Nc3sc4c(c3C(=O)NC)CCCC4)cc(=O)c2c1,inactive: 6.33%
23,O=C(Nc1ccc(Cl)cc1F)c1cc(S(=O)(=O)NCc2ccc3c(c2)OCO3)ccc1F,inactive: 3.9%
